The campaign covered roughly 110,000 compounds. About 230 (0.21%) showed an effect of 50% or more. This is one part of the list.
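Also: 30 min substrate incubation versus DMSO and 10 µM JCP410 controls.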

In this test the target is DPAP1 (Plasmodium falciparum, UniProt Q8IIJ9). As to the kind of experiment: primary screen, percent inhibition; read by cleavage of a fluorogenic dipeptide substrate; higher = more effect of the substance. On the set-up: species or system P. falciparum D10 trophozoite lysates; single well.
DPAP1, sequence (Q8IIJ9 whole entry, looked up): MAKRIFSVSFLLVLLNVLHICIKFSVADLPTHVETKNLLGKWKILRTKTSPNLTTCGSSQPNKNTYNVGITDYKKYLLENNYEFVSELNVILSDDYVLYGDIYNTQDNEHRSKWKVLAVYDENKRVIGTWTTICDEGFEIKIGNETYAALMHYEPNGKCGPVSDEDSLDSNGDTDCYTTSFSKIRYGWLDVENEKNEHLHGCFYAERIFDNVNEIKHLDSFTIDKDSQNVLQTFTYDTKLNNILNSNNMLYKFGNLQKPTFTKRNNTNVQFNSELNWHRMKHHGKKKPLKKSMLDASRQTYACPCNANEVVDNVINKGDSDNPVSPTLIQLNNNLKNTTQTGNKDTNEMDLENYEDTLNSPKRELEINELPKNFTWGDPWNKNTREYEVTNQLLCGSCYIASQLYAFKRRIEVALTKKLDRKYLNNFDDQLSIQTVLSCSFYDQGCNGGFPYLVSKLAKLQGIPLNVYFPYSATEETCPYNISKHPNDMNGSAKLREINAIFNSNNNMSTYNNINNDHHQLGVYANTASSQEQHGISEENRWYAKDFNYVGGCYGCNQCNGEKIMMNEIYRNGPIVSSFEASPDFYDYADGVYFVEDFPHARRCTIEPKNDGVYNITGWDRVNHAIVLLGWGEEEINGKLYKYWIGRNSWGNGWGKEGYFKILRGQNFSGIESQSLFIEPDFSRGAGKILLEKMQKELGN
For the compound `Cc1cc2nc(O)c(O)nc2cc1S(=O)(=O)N(Cc1ccccc1)C(C)C`, the “% Inhibition @ 10 uM” value is on record as -2.13%.

In the case of `COc1ccccc1OCc1nc(C#N)c(N2CCN(C)CC2)o1`, the “% Inhibition @ 10 uM” value is reported as -2.75%.

As to `CCOc1ccc(OCc2cccc(C(=O)N3CCCCC3C)c2)cc1` (stereo not drawn), the “% Inhibition @ 10 uM” value is reported as -1.57%.

As to `CC(C)CNc1c(Cl)cnn(C)c1=O`, the “% Inhibition @ 10 uM” value is -0.856%.

Consider `COC(=O)c1c(NC(=O)C2CC2c2ccccc2)sc2c1CCCC2` (stereo not drawn), for which the “% Inhibition @ 10 uM” value was -1.1%.

As for `CNC(=O)n1c(=O)sc2ccccc21`, the “% Inhibition @ 10 uM” value worked out at 4.22%.

Take `CCOC(=O)c1cc2c3c(c(N4CCOCC4)nc2s1)COC(C)(C)C3`: the “% Inhibition @ 10 uM” value was -1.72%.

Consider `CCc1ccc(C(C)NC(=O)Cc2ccccc2)cc1` (stereo not drawn), for which the “% Inhibition @ 10 uM” value is -11%.

Take `COc1cc(C2=NOC(C(=O)N(C)Cc3ccccc3)C2)cc(OC)c1OC` (stereo not drawn): the “% Inhibition @ 10 uM” value is listed as -0.431%.

Turning to `COC(=O)c1ccc(CSc2nnc(-c3ccccc3)o2)o1`, the “% Inhibition @ 10 uM” value was -2.75%.

As for `O=C(Cc1ccccc1)NC1(C(F)(F)F)C(=O)Nc2c1c(=O)[nH]c(=O)n2-c1ccc(F)cc1` (stereo not drawn), the “% Inhibition @ 10 uM” value is -6.43%.

Turning to `O=C1c2ccc(F)cc2C(=O)N1CN1CCOCC1`, the “% Inhibition @ 10 uM” value was -5.4%.

Regarding `Cc1cc(NS(=O)(=O)c2ccc(NC(=O)COc3cc(C)c(Cl)c(C)c3)cc2)no1`, the “% Inhibition @ 10 uM” value was -4.63%.

`CCNC(=O)c1ccc2c(c1)sc1nc(-c3ccc(C)cc3)cn12`: the “% Inhibition @ 10 uM” value worked out at 4.33%.

In the case of `CCCCNC(=O)Cn1sc2nc(C)cc(C)c2c1=O`, the “% Inhibition @ 10 uM” value is on record as 1.89%.

As for `Brc1cc2[nH]cnc2c2ccccc12`, the “% Inhibition @ 10 uM” value is -3.5%.

Regarding `O=C(/C=C/c1ccccc1)Nc1cc2ccccc2oc1=O`, the “% Inhibition @ 10 uM” value is recorded as 4.35%.

Consider `Cc1cccc(C)c1-n1nnnc1C(c1ccc(O)cc1)N(C)C` (stereo not drawn), for which the “% Inhibition @ 10 uM” value was -4.02%.

On to `CCC[C@H](NC(=O)C1(NC(=O)c2ccc(OC)cc2)CCCCC1)C(=O)c1nc2ccccc2o1`, for which the “% Inhibition @ 10 uM” value is listed as -3.04%.

In the case of `O=C(CSc1nc(-c2cccs2)cc(C(F)(F)F)n1)NCc1ccncc1`, the “% Inhibition @ 10 uM” value is -2.09%.

For `CCO/C(O)=C1\C(C)=NC2=C(C(=O)CC(C)(C)C2)C1c1c[nH]c2ccccc12` (stereo not drawn), the “% Inhibition @ 10 uM” value stood at 1.54%.

For `Cc1ccnc(NC(=O)C(C)c2cccc(C(=O)c3ccccc3)c2)n1` (stereo not drawn), the “% Inhibition @ 10 uM” value is -1.52%.

For the compound `CC1C(c2ccc(Cl)cc2)=[N+]([O-])C(C)(C)N1O` (stereo not drawn), the “% Inhibition @ 10 uM” value is given as 1.84%.

Turning to `Cn1c(=O)[nH]c(=O)c2c1nc(N1CCN(CCO)CC1)n2Cc1ccccc1`, the “% Inhibition @ 10 uM” value is on record as -2.84%.

As to `CC(C)C[C@H](NC(=O)c1cccc(-c2csc(N=C(N)N)n2)c1)C(=O)N[C@@H](CCCN=C(N)N)C(=O)O`, the “% Inhibition @ 10 uM” value is listed as -9.15%.

As to `N#CC1=C(SCC(=O)Nc2ccc(F)c(F)c2F)NC(=O)CC1c1ccccc1F` (stereo not drawn), the “% Inhibition @ 10 uM” value was 2.44%.

On to `O=c1c(-c2ccccc2)c(O)nc2n1CCCS2`, for which the “% Inhibition @ 10 uM” value is on record as 3.81%.

As for `CC(OCCCc1ccccc1)n1ccnc1` (stereo not drawn), the “% Inhibition @ 10 uM” value is reported as -0.312%.

Turning to `CCCSc1nc(O)cc(=O)n1C1CCCCC1`, the “% Inhibition @ 10 uM” value came out at 0.658%.

For the compound `CC(C)C[C@H](NC(=O)c1ccc(CN)cc1)C(=O)N[C@@H](CCc1ccccc1)C(=O)CO`, the “% Inhibition @ 10 uM” value is -5.64%.

Take `CNC(=O)/C(=C\c1ccco1)NC(=O)c1ccc(Br)cc1`: the “% Inhibition @ 10 uM” value came out at 2.38%.

Take `Cc1cc(/C=C2/NC(=O)N(Cc3ccccc3F)C2=O)c(C)n1-c1ccncc1`: the “% Inhibition @ 10 uM” value is on record as -16.8%.

Regarding `c1ccc2sc(-n3cccc3)nc2c1`, the “% Inhibition @ 10 uM” value is listed as -1.6%.

Regarding `CC1CN(C2=NC(=O)/C(=C/c3ccccc3)S2)CC(C)O1` (stereo not drawn), the “% Inhibition @ 10 uM” value is given as -3.41%.

As to `COc1ccc(-c2ccc3c(N)c(C(=O)NCc4ccccc4)sc3n2)cc1`, the “% Inhibition @ 10 uM” value was 0.375%.

With `Cc1nc2c(c(C)c1CCC(=O)NCCCN1CCOCC1)c(=O)n(C)c(=O)n2C`, the “% Inhibition @ 10 uM” value is -6.91%.

With `Cc1cc(NC(=O)CN2C(=O)c3ccccc3C2=O)[nH]n1`, the “% Inhibition @ 10 uM” value was 0.238%.

In the case of `C=CCNC1CC(=O)N(c2ccc(OC)cc2)C1=O` (stereo not drawn), the “% Inhibition @ 10 uM” value is reported as -9.26%.

With `CN(Cc1ccccc1)C1CCN(CCc2ccccc2)CC1`, the “% Inhibition @ 10 uM” value was determined as 1.29%.

As to `COc1cc(CN2CCN(C(=O)c3cccc(F)c3)CC2)cc(OC)c1OC`, the “% Inhibition @ 10 uM” value came to 7.1%.

`CCc1ccc(/C=C2/C(=N)N3OC(C)=CC3=NC2=O)cc1`: the “% Inhibition @ 10 uM” value was -3.23%.

As to `CCc1ccccc1NC(=O)CCC(=O)O`, the “% Inhibition @ 10 uM” value is on record as -2.55%.

Take `CCCOc1ccc(NC(=N)Nc2nc(C)cc(C)n2)cc1`: the “% Inhibition @ 10 uM” value was found to be 1.65%.

Turning to `CC(C)COc1ccc(C(=O)OCCN2CCCCC2)cc1`, the “% Inhibition @ 10 uM” value is recorded as -4.77%.

On to `CC1CN(Cc2coc3ccc(Cl)cc3c2=O)CC(C)O1` (stereo not drawn), for which the “% Inhibition @ 10 uM” value is 0.472%.

For the compound `CC(C(=O)NC1CCCCCC1)n1c(=O)c2cccn2c2cccnc21` (stereo not drawn), the “% Inhibition @ 10 uM” value is listed as -5.07%.

In the case of `c1ccc(CN2CCC(N3CCCCCC3)CC2)cc1`, the “% Inhibition @ 10 uM” value was 1.57%.

As to `Cc1sc2nc(SCC(=O)NCCCn3ccnc3)nc(O)c2c1C`, the “% Inhibition @ 10 uM” value amounted to 1.39%.

In the case of `CC[C@H](NC(=O)[C@H](Cc1c(F)cccc1F)NC(=O)c1ccc(-c2ccccc2Cl)cc1)C(=O)C(=O)NC`, the “% Inhibition @ 10 uM” value is given as -1.82%.

`Cc1cccc2c1cnn2C(=O)CCC(=O)NC1CCN(Cc2ccccc2)CC1`: the “% Inhibition @ 10 uM” value is listed as 3.29%.

On to `O=C(COc1ccccc1)NCCN1CCCC1`, for which the “% Inhibition @ 10 uM” value is reported as -6.94%.

(Values after article PMC6919601, “Identification of Plasmodium dipeptidyl aminopeptidase allosteric inhibitors by high throughput screening” (PLoS ONE, 2019).)
